Results taken from PubChem BioAssay AID624417 (National Center for Advancing Translational Sciences (NCATS), 2012).
Out of some 410,000 compounds screened, about 6,400 (1.6%) were called active. The shares of active, inactive and inconclusive entries below differ from those in the screen. The call rests on the fitted dose curve; in most records, active means well fitted inhibition curve with a large enough effect; inconclusive means small, poorly fitted or top-dose-only effect; inactive means no such curve, though single readings can be large or run the other way. No potency is given beside an inconclusive call; the fits are too rough.

Target: Glucagon-like peptide 1 receptor (Homo sapiens) (UniProt P43220)
Chain of UniProt P43220 (P43220 whole entry, looked up): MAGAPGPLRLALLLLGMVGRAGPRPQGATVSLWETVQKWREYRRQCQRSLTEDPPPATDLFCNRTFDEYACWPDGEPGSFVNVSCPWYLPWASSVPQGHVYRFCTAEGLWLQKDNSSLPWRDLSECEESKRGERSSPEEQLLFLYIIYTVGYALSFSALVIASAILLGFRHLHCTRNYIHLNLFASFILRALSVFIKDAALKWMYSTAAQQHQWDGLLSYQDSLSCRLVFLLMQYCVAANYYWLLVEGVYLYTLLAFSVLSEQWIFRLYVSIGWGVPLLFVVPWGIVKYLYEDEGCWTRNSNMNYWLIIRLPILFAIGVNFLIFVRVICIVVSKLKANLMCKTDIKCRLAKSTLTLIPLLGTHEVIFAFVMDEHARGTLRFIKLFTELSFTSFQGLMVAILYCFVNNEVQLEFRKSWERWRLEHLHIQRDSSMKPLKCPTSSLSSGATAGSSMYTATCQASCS
Assay: qHTS of GLP-1 Receptor Inverse Agonists (Inhibition Mode); further: nearly all actives have a fitted effect of over 55% in size
Settings: HEK293 GLP-1R CRE-luciferase, luminescence, 24 h, GLP-1R form is constitutively active; activity change, negative = inhibition: at 38.3 µM (top of the series) unless noted
How it was run: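 Stable HEK293 clone (constitutively active GLP-1R + cAMP-response luciferase); 200 cells/uL plated, 12 h pre-culture, compound 24 hr, 37 deg C/5% CO2; detection reagent 12 min RT; luminescence.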
On the % scale 0 is the no-effect control and ±100 the full control effect; potency means the concentration at half of the fitted maximal effect; tags describe the fitted curve by direction and shape.

SMILES	Potency	activity change, negative = inhibition
Cn1c2c(c(=O)[nH]c1=O)C(c1cccc(O)c1)C1=C(N2)c2ccccc2C1=O (centres undefined)	inconclusive [inhibitor, partial curve, poor fit]	–
Cc1ccc(-n2ncc(C(=O)NCCN3CCc4ccccc4C3)c2C2CCN(C(=O)OC(C)(C)C)CC2)cc1	inconclusive [inhibitor, single point]	–
CCN(CC)CCN(C(=O)c1ccc(S(=O)(=O)N(CC)c2ccccc2)cc1)c1nc2c(OC)ccc(OC)c2s1	inconclusive [inhibitor, single point]	–
CCOC(=O)c1cc(S(=O)(=O)N2CCN(c3ccc(OC)cc3)CC2)[nH]n1	–	inactive: 2.72%
CCOC(=O)c1cccc(NC(=O)CN2C(=O)CC(C)(C)Sc3ccccc32)c1	inconclusive [inhibitor, single point]	–
Cc1c(C)n(CCCN(C)C)c2ncnc(NCc3ccccc3)c12	inconclusive [inhibitor, partial curve, poor fit]	–
CCN(C(=O)c1oc2ccc(S(=O)(=O)N3CCCCCC3)cc2c1C)c1ccccc1	inconclusive [inhibitor, single point]	–
CNC(=S)N/N=C/c1cn(Cc2ccc(C)cc2)c2ccccc12	inconclusive [inhibitor, partial curve]	–
COC(c1ccc(Cl)cc1)(c1ccc(Cl)cc1)C(Oc1nc(C)cc(C)n1)C(=O)O (centres undefined)	inconclusive [inhibitor, partial curve, poor fit]	–
CCOC(=O)c1cnc(SCC(C)C)nc1N	–	inactive: 0%
O=C1NC(=Nc2cccc(Cl)c2)SC1Cc1cccc(Cl)c1Cl (centres undefined)	inconclusive [inhibitor, single point]	–
N#Cc1ccc(C(=O)N2CCC3CC2c2cc(-c4ccccc4)ccc23)cc1 (centres undefined)	inconclusive [inhibitor, single point]	–
O=C(Nc1ccc(C(=O)N2CCCCC2)cc1)c1ccc(Br)cc1	inconclusive [inhibitor, partial curve, poor fit]	–
Cc1nc2ccccc2c(=O)n1C1CCCCCC1	–	inactive: -24.2%
CN1C(=O)C(C)(C)c2cc(S(=O)(=O)NCc3ccc(C(=O)Nc4ccc(Cl)cc4)cc3)ccc21	inconclusive [inhibitor, partial curve, poor fit]	–
COc1ccc(C(CC(=O)c2ccc(C)cc2)Sc2ccccc2N)cc1 (centres undefined)	inconclusive [inhibitor, partial curve, poor fit]	–
Fc1cccc(COc2ccccc2C(=S)N2CCCC2)c1	inconclusive [inhibitor, partial curve, poor fit]	–
CC1(Cc2ccccc2C#N)C(=O)Nc2cc(-c3ccccc3Cl)ccc21 (centres undefined)	inconclusive [inhibitor, single point]	–
O=C(Cn1cc(COc2cc(F)cc(F)c2)nn1)c1ccc(O)cc1	inconclusive [inhibitor, partial curve, poor fit]	–
CS(=O)(=O)Nc1ccc(C2=NN(C(=O)C3CCCCC3)C(c3cccs3)C2)cc1 (centres undefined)	inconclusive [inhibitor, single point]	–

SMILES	Potency	activity change, negative = inhibition
CC(C)(C)c1cc(NC(=O)Nc2ccccc2)no1	inconclusive [inhibitor, single point]	–
CC(=O)Nc1ccc(C(=O)N/N=C/c2cc(Br)cc(Br)c2O)cc1	inconclusive [inhibitor, partial curve, poor fit]	–
COc1cc(NS(C)(=O)=O)ccc1Nc1c2ccccc2nc2ccccc12	inconclusive [inhibitor, full curve, poor fit]	–
S=C(NCC1CCCO1)N1CCN(c2ccc(Cl)c(Cl)c2)CC1 (centres undefined)	inconclusive [inhibitor, partial curve, poor fit]	–
COc1ccc(-c2ccc3c(c2)C2CC3CCN2C(=O)OCc2ccccc2)cc1 (centres undefined)	inconclusive [inhibitor, partial curve, poor fit]	–
S=C(NCc1ccc(Cl)cc1)Nc1ccc(Cl)cc1Cl	inconclusive [inhibitor, partial curve, poor fit]	–
CCO[C@H]1OC(C(=O)N2CCOCC2)=C[C@@H](c2ccc(C(F)(F)F)cc2)[C@@H]1CCCO	–	inactive: -4.84%
CC1CCCC(N2C(=O)NC(NC(=O)c3ccco3)(C(F)(F)F)C2=O)C1C (centres undefined)	inconclusive [inhibitor, partial curve, poor fit]	–
CCCCn1cc(S(=O)(=O)c2ccc(OC)cc2)c(=O)c2cc(F)c(N3CCCC3)cc21	–	inactive: 6.42%
CCCCNC(=O)C1(C)CCCCN1C(=O)c1cc(-c2ccccc2)cs1 (centres undefined)	inconclusive [inhibitor, single point]	–
Cc1ccc(Sc2ccc(CN3CCCC3)cc2[N+](=O)[O-])cc1	inconclusive [inhibitor, full curve, poor fit]	–
COc1ccc(C(=O)CCC(=O)N2CCN(c3cc(C)ccc3C)CC2)cc1	inconclusive [inhibitor, partial curve, poor fit]	–
C=CCc1c(C)nc(-c2ccccc2)nc1N/N=C/c1ccncc1	inconclusive [inhibitor, single point]	–
COc1ccccc1CNC(=O)CN1C(=O)COc2ccc(S(=O)(=O)N3CCCCC3)cc21	inconclusive [inhibitor, full curve, poor fit]	–
O=S(=O)(NCc1cccc(Br)c1)c1ccc(-c2cc(C(F)(F)F)on2)s1	inconclusive [inhibitor, single point]	–
Cc1ccc(C(=O)N2CCN(C3CCCCC3)CC2)s1	inconclusive [inhibitor, single point]	–
COc1cccc(C(=O)NNC(=O)CCN2CCN(c3ccccc3)CC2)c1	–	inactive: -9.99%
Nn1c(-c2ccccn2)nnc1-c1ccccn1	–	inactive: 23.6%
COc1ccc(CC(=O)Nc2oc(-c3ccccc3)c(-c3ccccc3)c2C#N)cc1OC	active: 2.24 µM	–
